Results: PMC3660575, “The Intracellular Domain of Sortilin Interacts with Amyloid Precursor Protein and Regulates Its Lysosomal and Lipid Raft Trafficking” (PLoS ONE, 2013)
Values belong to the binder of their own block, whether it stands above or below them.

Biological target: T1, APP770-YFP (human, UniProt P05067-1)
T1 construct: human amyloid precursor protein, the isoform named APP770; Plasmid was a gift (Prof. Goldstein, UCSD); the construct is not described further; also called APP-YFP; source: HEK293, transfected (APP770-YFP pcDNA3.1), in lysate or in living cells
Assay: FRET or BRET; FRET acceptor bleaching in co-transfected HEK293 cells (YFP and CFP fusions); FRET efficiency from photobleached regions of interest; the negative control's value used as cut-off
Settings: partners not purified

Sequence of APP770-YFP (P05067 18-770): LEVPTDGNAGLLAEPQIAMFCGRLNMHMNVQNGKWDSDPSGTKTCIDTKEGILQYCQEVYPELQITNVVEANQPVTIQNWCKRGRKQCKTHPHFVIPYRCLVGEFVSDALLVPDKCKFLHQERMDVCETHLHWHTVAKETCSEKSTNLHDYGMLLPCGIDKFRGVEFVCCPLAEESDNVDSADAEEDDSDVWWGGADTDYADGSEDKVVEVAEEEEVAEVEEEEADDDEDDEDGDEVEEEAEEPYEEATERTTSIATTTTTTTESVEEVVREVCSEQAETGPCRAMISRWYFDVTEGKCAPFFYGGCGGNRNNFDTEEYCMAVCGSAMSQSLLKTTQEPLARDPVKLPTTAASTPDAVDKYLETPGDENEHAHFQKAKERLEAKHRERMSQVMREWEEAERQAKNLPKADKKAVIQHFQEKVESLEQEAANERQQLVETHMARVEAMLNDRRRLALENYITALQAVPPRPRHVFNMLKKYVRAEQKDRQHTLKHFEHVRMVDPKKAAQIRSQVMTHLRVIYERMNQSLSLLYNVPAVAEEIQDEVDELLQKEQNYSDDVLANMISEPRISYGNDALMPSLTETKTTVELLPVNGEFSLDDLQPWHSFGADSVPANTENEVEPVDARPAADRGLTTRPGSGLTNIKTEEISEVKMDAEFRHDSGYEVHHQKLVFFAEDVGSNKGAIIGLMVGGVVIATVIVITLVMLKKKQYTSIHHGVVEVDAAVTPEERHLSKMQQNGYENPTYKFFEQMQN

- FRET efficiency: 15%
B1: Sort […]-CFP (domain or fragment)
chain: not shown
notes: The forward primer adds a start ATG before the stretch; source: HEK293, transfected, in living cells; not shown: CFP (vector pECFP-N1), C-terminal, kept

- FRET efficiency: 25%
B2: Sort […]-CFP (domain or fragment, human)
chain: [about 700 residues left out]SVPIILAIVGLMLVTVVAGVLIVKKYVCGGRFLVHRYSVLQQHAEANGVDGVDALDTASHTNKSGYHDDSDEDLLE
notes: as for B1
